PubChem BioAssay (NCI)
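Cells were grown in 96-well plates and exposed to each compound for 48 hours at five concentrations; endpoints were interpolated linearly between bracketing concentrations, or set to the highest concentration if not reached. GI50: concentration for 50% inhibition of growth. Definition used: TGI = concentration required for complete inhibition of growth.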

What follows are compounds tested on NCI-H322M lung (assay: growth of human tumour cells (NCI), 48 h).

Point of comparison: CN1CCC23c4c5ccc(Oc6nnnn6-c6ccccc6)c4OC2c2[nH]c4ccccc4c2CC3(O)C1C5 (stereo not given), TGI 19.2 µM. Against it:
- CCCN(CCc1ccc(-c2ccccc2)cc1)CCc1ccc2n[nH]nc2c1 — within 1.5-fold, 25.4 µM
- CN(CCC(=O)N1CC(CCl)c2ccc([N+](=O)[O-])cc21)CCC(=O)N1CC(CCl)c2ccc([N+](=O)[O-])cc21 (stereo not given) — higher, > 100 µM
- O=C1CC(Br)c2c(Br)sc(Br)c21 (stereo not given) — higher, > 100 µM
- COC(=O)C(=O)C(C(=O)C(=O)Nc1ccccc1C(N)=O)c1nc2ccc(Cl)cc2[nH]c1=O (stereo not given) — higher, > 100 µM
- Cc1c(N=Nc2ccccc2)c(-c2ccccc2)n(C2OC(CO)C(O)C(O)C2O)c(=S)c1C#N (stereo not given) — within 1.5-fold, 16.8 µM
- N.N.N.N.N.O=C([O-])c1nn[n-]n1.[Cl-].[Co+3] — higher, > 100 µM
- COC(=O)C1=CC2C(=O)c3ccccc3C1(c1ccccc1)N2C1CCCCC1 (stereo not given) — higher, > 100 µM
- NCc1ccc(-c2ccc(CN)s2)s1 — higher, > 100 µM
- CC(C)C[C@H]1[C@@H](OCc2ccccc2)COS(=O)(=O)N1[C@H](C)c1ccccc1 — higher, > 100 µM
- O=C(Nc1ccc(Cl)cc1)c1cc(S(=O)(=O)Nc2n[nH]c(Nc3ccc4ccccc4c3)n2)c(SSc2cc(Cl)c(C(=O)Nc3ccc(Cl)cc3)cc2S(=O)(=O)Nc2n[nH]c(Nc3ccc4ccccc4c3)n2)cc1Cl — 4-fold higher, 76.9 µM
- COc1ccc2c(c1)C=C([N+](=O)[O-])C(C1OC(C)(C)OC1C1COC(C)(C)O1)O2 (stereo not given) — within 1.5-fold, 27.5 µM
- O=C1NC(=O)c2ccc([N+](=O)[O-])c3cccc1c23 — 1.7-fold higher, 32.6 µM
- CC1CN1CC(O)C(O)CN1CC1C (stereo not given) — 2.7-fold higher, 51.7 µM
- CCOC(=O)c1c(CN2CCN(c3ccccc3)CC2)n(-c2ccccc2)c2cc(Br)c(O)cc12 — 3.6-fold higher, 69.9 µM
- CCS(=O)(=O)c1ccc(OC)c(Nc2ncc(-c3cccc(C(C)=O)c3)o2)c1 — higher, > 25 µM
- C[N+](C)(C)CC1CCCC(C[N+](C)(C)C)C1=O (stereo not given) — 1.7-fold higher, 32 µM
- C/C(Cl)=N/OC(=O)Nc1ccc(F)c([N+](=O)[O-])c1 — 2.6-fold higher, 49.4 µM
- CC(C)CCCC(C)[C@H]1CC[C@H]2n3c(nnc3-c3ccccc3)CCC[C@]12C (stereo not given in full) — 2.2-fold higher, 41.4 µM
- Cc1nc(N)c(N2CCN(S(N)(=O)=O)CC2)c(=O)[nH]1 — higher, > 100 µM
- C1=C(CC2=C[P+](c3ccccc3)(c3ccccc3)C=C(c3ccccc3)O2)OC(c2ccccc2)=C[P+]1(c1ccccc1)c1ccccc1 — 10-fold lower, 1.88 µM
- O=C(CC(O)(C(F)(F)F)C(F)(F)F)C(c1ccccc1)C(O)(C(F)(F)F)C(F)(F)F (stereo not given) — higher, > 100 µM
- COc1cc(OC)c(/C=C/C(=O)c2c(OC)cccc2OC)c(OC)c1 — higher, > 100 µM
- CC(=O)OCC1OC(NC(=S)Nn2c(=O)[nH]c3ccccc3c2=O)C(OC(C)=O)C(OC(C)=O)C1OC(C)=O (stereo not given) — higher, > 100 µM
- C[C@]12CC[C@H]3[C@@H](CCC4=CC(=O)CC[C@@H]43)[C@@H]1CC[C@]2(O)C(N)=O — higher, > 100 µM
- CCC1CN2CCc3cc(OC)c(OC)cc3C2CC1CC1c2cc(OC)c(OC)cc2CCN1C(=O)C(N)Cc1ccccc1 (stereo not given) — 1.9-fold lower, 10.1 µM
- CC1=C2C(=O)O[C@@H](c3ccoc3)[C@]2(C)CCC1 — higher, > 100 µM
- OC1=C2c3ccccc3NC2Oc2cc(F)ccc21 (stereo not given) — 2.3-fold higher, 44.1 µM
- CCN(CC)C(=O)c1cc(OC(C)C)ccc1-c1c(C)cc(OC(C)C)c(OC)c1OC — higher, > 100 µM
- COc1ccc(C2C(C(=O)O)=C(CO)Oc3cc4c(cc32)OCO4)cc1 (stereo not given) — higher, > 100 µM
- COc1ccc(-c2cn3ccsc3n2)cc1 — higher, > 100 µM
- CCN1C(=O)CNc2ncc(-c3ccc(-c4ncn[nH]4)nc3C)nc21 — 2.4-fold lower, 7.99 µM
- COc1ccc(C(C)c2cc3c(cc2OC)OCO3)cc1 (stereo not given) — higher, > 97.2 µM
- NC(N)=NCCCn1c2c(c3ccccc3c1=O)C(=O)c1ccccc1-2 — 5.1-fold higher, 97.3 µM
- NC1=NN(c2ccccc2)C(=O)C1C(=O)CCC(=O)Nc1cccc(C(F)(F)F)c1 (stereo not given) — higher, > 100 µM
- O=C1c2ccccc2-c2nnc(-c3ccc([N+](=O)[O-])cc3)cc21 — not separable, > 10 µM
- COc1c2c(cc3nc4ccccc4nc13)CCC(C(C)(C)O)C2 (stereo not given) — higher, > 100 µM
- CC[O-].CC[O-].O=C1c2ccccc2C(=O)c2c(O)ccc([O-])c21.O=C1c2ccccc2C(=O)c2c(O)ccc([O-])c21.[Ti+4] — higher, > 100 µM
- C=CCCCCCCCCC(=O)NS(=O)(=O)c1ccccc1 — higher, > 100 µM
- CC1(n2nc(-c3ccccc3)n(-c3ccccc3)c2=O)CSC1 — higher, > 100 µM
- CC(C)OC(=O)c1ccc(NCC2=CC(=O)C=CC2=O)cc1 — higher, > 100 µM
- CC(C)(C)c1cc(S(=O)(=O)O)c2oc(-c3ccccc3)cc(=O)c2c1 — higher, > 100 µM
- CCCCCCCCCCCCCCCCP(=O)(O)OCC(N)C(=O)O (stereo not given) — 2.1-fold higher, 41.2 µM
- O=C(CCl)Nc1ccc(Cl)cc1 — within 1.5-fold, 24 µM
- Cc1ccc(/C(=C/C=C(C#N)C#N)Sc2ccc(Cl)cc2)cc1 — 1.6-fold higher, 31.1 µM
- O=c1[nH]c(=O)n(C/C=C/CO)nc1Br — higher, > 100 µM

Point of comparison: CC1CN1CC(O)C(O)CN1CC1C (stereo not given), GI50 8.22 µM. Against it:
- N.N.N.N.N.O=C([O-])c1nn[n-]n1.[Cl-].[Co+3] — higher, > 100 µM
- CCOC(=O)c1c(CN2CCN(c3ccccc3)CC2)n(-c2ccccc2)c2cc(Br)c(O)cc12 — 2.8-fold higher, 23.4 µM
- CCS(=O)(=O)c1ccc(OC)c(Nc2ncc(-c3cccc(C(C)=O)c3)o2)c1 — higher, > 25 µM
- COc1cc(OC)c(/C=C/C(=O)c2c(OC)cccc2OC)c(OC)c1 — 4.1-fold lower, 2.02 µM
- CCN1C(=O)CNc2ncc(-c3ccc(-c4ncn[nH]4)nc3C)nc21 — 37-fold lower, 0.225 µM
- NC(N)=NCCCn1c2c(c3ccccc3c1=O)C(=O)c1ccccc1-2 — 3.3-fold higher, 27.5 µM
- O=C(CCl)Nc1ccc(Cl)cc1 — within 1.5-fold, 9.54 µM
- Cc1ccc(/C(=C/C=C(C#N)C#N)Sc2ccc(Cl)cc2)cc1 — 1.7-fold higher, 13.8 µM
